From PubChem BioAssay AID1347071 (National Center for Advancing Translational Sciences (NCATS), 2019)
About 260 (0.063%) of roughly 410,000 compounds were called active. Inconclusive results, whose numbers are uncertain, are shown with a selection of clear calls. The call rests on the fitted dose curve; in most records, active means well fitted activation curve with a large enough effect; inconclusive means small, poorly fitted or top-dose-only effect; inactive means no such curve, though single readings can be large or run the other way. Potencies of inconclusive entries are left out as doubtful fits.
Potency means the concentration at half of the fitted maximal effect; tags describe the fitted curve by direction and shape.

Experiment: qHTS for compounds that reverse cellular toxicity of Amyloid beta (A-beta) peptide in yeast: Primary Screen; further: nearly all actives have a fitted effect of over 55% in size
Conditions: yeast expressing A-beta42, growth rescue, OD600, 48 h; growth rescue: at 46.1 µM (top of the series), 0% DMSO, 100% iron-clioquinol control
Outline: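 Yeast growth medium received pinned compounds, then yeast cells expressing toxic A-beta were added; plates incubated at 30 C for 48 hr. Growth read as absorbance at 600 nm, normalized to DMSO and equimolar FeCl3 plus clioquinol controls.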
For `O=C(CSc1nccn1-c1ccc(Cl)cc1)Nc1cccc2ccccc12`, the “growth rescue” value was inactive: 18.7%. With `Nc1cc(S(=O)(=O)Nc2ccccc2Cl)ccc1N1CCCC1` the Potency was inconclusive [activator, full curve]. For `COc1cccc(/C=C2\CCc3ccccc3C2=O)c1`, the “growth rescue” value was inactive: -21.6%. In the case of `O=C(NCc1ccc2c(c1)OCO2)C1COc2ccccc2O1` (stereo not given), the Potency is reported as inconclusive [activator, single point]. In the case of `CCc1ccccc1NC(=S)N1CCCCCC1`, the Potency is reported as inconclusive [activator, single point]. With `O=C(COC(=O)c1ccc(-c2ccc([N+](=O)[O-])cc2)o1)NC(=O)NC12CC3CC(CC(C3)C1)C2` the Potency was inconclusive [activator, full curve, poor fit]. For `Cc1ccc(-c2csc(NC(=O)c3c(C)noc3C)n2)s1`, the “growth rescue” value was inactive: -13.9%. With `CC1=NOC(=O)/C1=C/c1ccc(O)cc1` the Potency was inconclusive [activator, partial curve, poor fit]. In the case of `Cc1ccccc1NC(=O)c1c(NC(=O)c2ccncc2)sc2c1CCC(C(C)(C)C)C2` (stereo not given), the “growth rescue” value is reported as inactive: -10.5%. With `O=C(COc1ccccc1Cl)NC(=O)NC1CCCC1` the Potency was inconclusive [activator, single point]. In the case of `Cc1ccc(S(=O)(=O)N2CCN(C(=O)C3CC(=O)N(c4ccc5c(c4)OCCO5)C3)CC2)cc1` (stereo not given), the Potency is reported as inconclusive [activator, single point]. In the case of `Cc1ccc(/C=N/NC(=S)Nc2cccc(S(=O)(=O)N(C)C)c2)o1`, the Potency is reported as inconclusive [activator, partial curve]. In the case of `C=CCN=C(NC#N)SCc1ccccc1Cl`, the Potency is reported as inconclusive [activator, single point]. For `COc1ccccc1C(=O)N1CCN(C(=O)c2oc3c(C)c(C)ccc3c2C)CC1`, the “growth rescue” value was inactive: -8.83%. With `CCOc1ccccc1NC(=S)Nc1ccccc1F` the Potency was inconclusive [activator, partial curve, poor fit]. For `CCCCOC(=O)c1cc(-c2ccc(/C=N/n3cnnc3)o2)ccc1Cl`, the Potency was inconclusive [activator, partial curve, poor fit]. For `COc1cccc(-c2ccc3c(c2)N(Cc2ccc(F)cc2)C(=O)C(C)S3)c1` (stereo not given), the Potency was inconclusive [activator, single point]. For `Cc1ccc(N2CCN(C(C(=O)Nc3c(C)cccc3C)c3ccccc3OC(F)(F)F)CC2)cc1` (stereo not given), the Potency was inconclusive [activator, partial curve]. With `COc1cc(OC)cc(C(=O)Nc2cccc(-c3cn4ccsc4n3)c2)c1` the “growth rescue” value was inactive: -4.31%. With `CCc1cccc(C)c1NC(=O)c1cc(S(=O)(=O)N2CCN(c3ccccc3)CC2)ccc1F` the “growth rescue” value was inactive: -1.32%. With `Cc1ccc(S(=O)(=O)N(C)c2ccc(OCC(=O)OCc3cccc(Br)c3)cc2)cc1` the “growth rescue” value was inactive: 13.7%. For `COCCNC(=S)N/N=C(\C)c1cccc([N+](=O)[O-])c1`, the Potency was inconclusive [activator, single point]. In the case of `O=C(CCc1ccccc1)Nc1ccccc1OC(=O)c1ccccc1`, the “growth rescue” value is reported as inactive: -10%. In the case of `Cn1cc(-c2nc3ccccc3[nH]2)c2ccccc21`, the “growth rescue” value is reported as inactive: 12.5%. In the case of `CCOCCCNC(=S)N1CCN(c2nc(-c3ccc(F)cc3)cs2)CC1`, the Potency is reported as inconclusive [activator, single point]. In the case of `CCc1ccc(S(=O)(=O)c2cn(Cc3ccc(OC)cc3)c3cc(OC)c(OC)cc3c2=O)cc1`, the “growth rescue” value is reported as inactive: -2.06%. In the case of `C=CCn1c(Cc2ccc(OC(C)C)c(Cl)c2)nnc1SCC(N)=O`, the Potency is reported as inconclusive [activator, single point]. In the case of `Cc1ccc(NC(=O)c2cc(-c3ccc(F)cc3)on2)cc1C`, the “growth rescue” value is reported as inactive: 7.85%. For `Cc1ccc(OCc2nc3ccccc3n2C(C)C(=O)Nc2c(C)cccc2C)cc1` (stereo not given), the “growth rescue” value was inactive: 4.9%. With `CCNC(=S)N/N=C(\C)c1ccc(N2CCOCC2)cc1` the Potency was inconclusive [activator, single point]. With `C=CCNC(=S)NNC(=O)C(CCCC)CC(O)COCC(C)C` (stereo not given) the Potency was inconclusive [activator, partial curve, poor fit]. With `Cc1cccc(C(=O)Nc2ccccc2OCc2cc(=O)n3cc(C)ccc3n2)c1` the “growth rescue” value was inactive: -3.16%. With `O=C(CN1C(=O)NC(Cc2c[nH]c3ccccc23)C1=O)NCC(F)(F)F` (stereo not given) the Potency was inconclusive [activator, single point]. In the case of `COc1ccc(C(=O)C2CCN(C(=S)Nc3ccc(F)cc3)CC2)cc1`, the Potency is reported as inconclusive [activator, partial curve, poor fit]. For `NC(Cc1ccccc1)C(O)(c1ccccc1)c1ccccc1` (stereo not given), the Potency was inconclusive [activator, single point]. In the case of `N#CC1=C(S)N(c2ccc(F)cc2)C2(CCCCC2)NC1=O`, the “growth rescue” value is reported as inactive: -7.81%. For `CCC(C)c1ccc(NC(=S)N2CCCC2)cc1` (stereo not given), the Potency was inconclusive [activator, single point]. For `CC(C)(C)NC(=O)NC(=O)COC(=O)c1ccc(OC(F)(F)F)cc1`, the Potency was inconclusive [activator, partial curve]. For `O=C(Cn1cc(S(=O)(=O)Cc2ccccc2Cl)c2ccccc21)Nc1ccc(F)cc1F`, the “growth rescue” value was inactive: -11.1%. For `CC(C)[C@H](NC(=O)OC(C)(C)C)c1nnc(SCC(=O)Nc2ccc(Br)cc2)o1`, the Potency was inconclusive [activator, partial curve, poor fit]. For `COc1ccc(-c2csc(NC(=O)c3c(C)noc3C)n2)cc1F`, the Potency was inconclusive [activator, partial curve, poor fit]. In the case of `Cc1cccc(OCCCC(=O)NNC(=O)c2ccccn2)c1`, the Potency is reported as inconclusive [activator, single point]. For `Cc1ccc(OCc2nnc(SCC(=O)Nc3cccc4ccccc34)n2-c2ccccc2)cc1`, the Potency was inconclusive [activator, single point]. In the case of `O=C(c1cccc([N+](=O)[O-])c1)c1ccc2c(c1)C(=O)NC2=O`, the Potency is reported as inconclusive [activator, partial curve, poor fit]. In the case of `Cc1nc(SC(C)C(=O)Nc2cccc(C(F)(F)F)c2)c2c(C)c(C(=O)O)sc2n1` (stereo not given), the Potency is reported as inconclusive [activator, single point].
